This passage reports viability, T/C and IC50 results from PubChem BioAssay AID1918995 (Molecular Pharmacology Branch, DTP, NCI, 2023).

Structures are written as SMILES. Some entries of the source have several records that differ or are many. This is not the full list of results. An entry can have further records. Values that stand side by side are repeated measurements across runs, samples, wells, individuals or studies. Marks such as (2×) say how often a value occurs here.

For this assay, the system named is 324938-238-R-J1-PDC complex spheroid growth, % test/control. Briefly: Anticancer human tumor 324938-238-R-J1-PDC patient-derived bladder carcinoma cell line growth inhibition [AhR]. The settings on record: for viability, T/C: stronger effect = lower value; for IC50: compound alone. From the text: Multicellular complex tumor spheroid response to aryl hydrocarbon receptor antagonists in combination with a variety of drugs and investigational agents in selected tumor cell lines
The current study was undertaken to assess response to aryl hydrocarbon receptor antagonists in combination with standard-of-care drugs and investigational agents in solid tumor complex spheroid models. Complex spheroids include a stromal component modeled by human endothelial cells (HUVEC) and fibroblasts modeled by human mesenchymal stem cells (MSCs). The concentration ranges selected for each drug and investigational agent were based upon clinically achievable concentrations if the clinical Cmax of the agent was known.
Compounds. The drugs and investigational agents: BAY 2416964 (NSC825713), GNF351 (NSC835774), CH-223191 (NSC835775), CPI-455 (NSC825282), aza-TdCyd (NSC777586), decitabine (NSC127716), belinostat (NSC758774), entinostat (NSC756642), pevonedistat (NSC761192), tazemetostat (NSC777109), talazoparib (NSC765396), olaparib (NSC753686), selinexor (NSC780203), nedisertib (M3814, NSC802822), bortezomib (NSC756655), venetoclax (NSC766270), doxorubicin (NSC123127), elimusertib (BAY189344, NSC800525), ceralasertib (AZD6738, NSC777638), TAK-243 (NSC785004), alisertib (NSC759677), etoposide (NSC141540), topotecan (NSC609699), eribulin (NSC707389), gemcitabine (NSC613327), carboplatin (NSC241240), cisplatin (NSC119875), and SN-38 (NSC673596) were obtained from the National Cancer Institute (NCI) Developmental Therapeutics Program Chemical Repository (32). The FDA-approved anticancer drug set is available from the Developmental Therapeutics Program at https://dtp.cancer.gov/organization/dscb/obtaining/available plates.htm. […] The stock solutions were prepared in dimethyl sulfoxide (DMSO, Sigma-Aldrich, St. Louis, MO, cat. D2650), except for the platinum compounds which were prepared in saline (Quality Biological, Gaithersburg, MD, cat. 114-055-101), at 800-fold the tested concentration and stored at -70 degrees C prior to their use. All drugs and investigational agents were tested over a range starting from a high concentration at or near the clinical Cmax and decreasing in half-log increments. If the clinical Cmax for an agent had not been determined, the highest concentration tested was 10 microM (Table 1).
Cell Culture. All cells were maintained in an incubator at 37 degrees C and 5% CO2 with 95% humidity. The PDC lines were cultured according to standard operating procedures established by the NCI PDMR (https://pdmr.cancer.gov). Briefly, all PDCs were thawed and cultured in Matrigel-coated flasks prepared with a working solution of 1X Ham's F-12 nutrient mix, without supplementation (Invitrogen, Waltham, MA, cat. 11765054), 100 U/mL penicillin-streptomycin (Invitrogen, cat. 15140122), and 2.5% Matrigel (Corning Inc., Corning, NY, cat. 354248) for the first three passages. All PDCs were cultured in complete DMEM/F-12 media containing advanced DMEM/F-12 (Invitrogen, cat. 12634028), 4.9% defined fetal bovine serum, heat inactivated (HyClone Laboratories Inc., Logan, UT, cat. SH30070.03HI), 389 ng/mL hydrocortisone (Sigma-Aldrich, cat. H4001), 9.7 ng/mL human EGF recombinant protein (Invitrogen, cat. PHG0313), 23.4 microg/mL adenine (Sigma-Aldrich, cat. A2786), 97.3 U/mL penicillin-streptomycin (Invitrogen, cat. 15140122), 1.9 mM L-glutamine (Invitrogen, cat. 25030081), and 9.7 microM Y-27632 dihydrochloride (Tocris Bioscience, Bristol, United Kingdom, cat. 1254). The PDCs were cultured in complete DMEM/F12 media without 10 microM Y-27632 dihydrochloride for at least two passages prior to the screen. The established cell lines NCI-H1341 and […] were cultured in DMEM/F-12, HEPES (Invitrogen, cat. 11330032), 5% defined fetal bovine serum (HyClone Laboratories Inc., cat. SH30070.03), ITS premix universal culture supplement [insulin (5 microg/mL), transferrin (5 microg/mL), and selenious acid (5 ng/mL)] […]

The term IC50 denotes the concentration that inhibits the measured activity by half.
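Also: spheroids exposed to agents for seven days before viability read.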

For the molecule `CC(CO)NC(=O)c1cc(-c2ccc(Cl)cc2)nn(-c2cnn(C)c2)c1=O` (stereo not given), the viability, T/C reads like this: (compound alone 0.1 µM) 104 (3×), 93.6, 102, 98.9, 96.8, 92.9, 113 (2×), 89.5, 98.8, 86.5, 91.1, 84.3, 97.4, 96.3, 94.8, 108, 91.6%; (compound alone 3.16 µM) 74.8, 69.1, 73.3, 63.5, 69, 85.6, 72.4, 75.7, 58.3, 78.5, 73.6, 67.5, 65.7, 68.9, 64.3, 73.4, 76.5, 75.1, 75.4%.

For the molecule `Nc1ccn(C2OC(CO)C(O)C2(F)F)c(=O)n1` (stereo not given), the half-inhibitory concentration (IC50) is recorded as < 31.6 nM, > 10 µM, 36.1 nM.

As for `COc1cc(Nc2ncc3c(n2)-c2ccc(Cl)cc2C(c2c(F)cccc2OC)=NC3)ccc1C(=O)O`, the IC50 was 83.9 nM, > 10 µM, 142 nM.

`Nc1ccccc1NC(=O)c1ccc(CNC(=O)OCc2cccnc2)cc1`: the viability, T/C (compound alone 10 µM) is recorded as 21.3%, 4.9%, 34.6%.

For the molecule `COc1cc(C2c3cc4c(cc3C(OC3OC5COC(C)OC5C(O)C3O)C3COC(=O)C23)OCO4)cc(OC)c1O` (stereo not given), the concentration for half-maximal inhibition (IC50) was 344 nM, > 10 µM, 399 nM.

For the molecule `Cc1ccccc1N=Nc1ccc(NC(=O)c2ccnn2C)c(C)c1`, the viability, T/C reads like this: (compound alone 0.1 µM) 87.3, 83.6, 83.4, 101 (2×), 95.7, 96.4, 111, 97.1, 108, 91.5, 95.6, 90.3, 93.7, 102, 96.9, 104, 106, 99.4, 98.3%; (compound alone 0.316 µM) 88.8, 86.5, 83, 102, 83.7, 70.3, 66, 92.8, 88.4, 82 (2×), 93.9, 92.3, 82.4, 105, 89.2, 93.6, 86.4, 81.6, 99.6%; (compound alone 1 µM) 92.9, 94.2, 81.5, 91.7, 78.4, 81.4, 89.1, 94.5, 88.7, 88.6, 107, 83, 88.1 (2×), 92.4, 78.6, 94.7, 81, 81.2, 95.9%; (compound alone 3.16 µM) 76.2, 77.2, 65.2, 95.9, 69.6, 77.5, 85.4, 83.4, 85, 79.2, 84.8, 75.4, 79, 79.4, 70.7, 82.8, 74.8, 65.6, 74.7, 86.9%.

For the molecule `CC1COCCN1c1cc(-c2ccnn2C)c2ccnc(-c3ccn[nH]3)c2n1` (stereo not given), the IC50 is on record as 73 nM, > 1 µM, 288 nM.

`COc1cccc2c1C(=O)c1c(O)c3c(c(O)c1C2=O)CC(O)(C(=O)CO)CC3OC1CC(N)C(O)C(C)O1` (stereo not given): the IC50 was < 31.6 nM (2×) and 344 nM.

With `Cc1cncc(-c2nc(NCCc3c[nH]c4ccccc34)c3ncn(C(C)C)c3n2)c1`, the viability, T/C is 126, 105, 104 (2×), 112, 87.8, 84.7, 92.4, 103, 92.8, 111, 137, 114, 94.5, 113, 97.8, 118, 79.1, 91.5, 95.6% (compound alone 0.1 µM); 97.2, 78.1, 93, 86.6, 76.1, 76.2, 96 (2×), 124, 83.6, 130, 108 (2×), 101, 107, 85.2, 80.7, 125, 88.7, 118% (compound alone 0.316 µM); 99.1, 94.5, 87.6, 108 (2×), 98.7, 94.1, 106, 96.5, 94.4, 109, 113, 86.1, 84.9, 118 (2×), 99.8, 101, 91.1, 81.5% (compound alone 1 µM); 77.9, 77, 105 (2×), 70.4, 106 (2×), 67.4, 87.6, 84.2, 90, 75.1, 97.2, 68.7, 91.9, 116, 113, 84, 83, 85.8% (compound alone 3.16 µM); 1.93, 4.73, 5.11, 7.15, 41.5, 7.09, 4.86, 2.94, 4.38, 5.78, 17.5, 15.6, 16.9, 7.93, 7.43, 21, 11, 7.33, 6.17, 8.51% (compound alone 10 µM).

On to `O=C(C=Cc1cccc(S(=O)(=O)Nc2ccccc2)c1)NO`, for which, for the setting “compound alone 10 µM”, the viability, T/C was 1.47%, 3.01%, 31.2%.

As for `CCc1c2c(nc3ccc(O)cc13)-c1cc3c(c(=O)n1C2)COC(=O)[C@]3(O)CC`, the IC50 is on record as < 0.949 nM, > 300 nM, 3.26 nM.

Take `O=C(C=Cn1cnc(-c2cc(C(F)(F)F)cc(C(F)(F)F)c2)n1)NNc1cnccn1`: the viability, T/C (compound alone 3 µM) is listed as 9.1%, 34.5%, 8.07%.
